# About 150 (0.041%) of roughly 370,000 compounds were called active. Inconclusive means that the source gave no clear call. Such entries were picked first, then a sample of the others. The call rests on the fitted dose curve; in most records, active means well fitted inhibition curve with a large enough effect; inconclusive means small, poorly fitted or top-dose-only effect; inactive means flat fitted curve, though single readings scatter. No potency is given beside an inconclusive call; the fits are too rough.
# Molecular target: Beta-lactamase (Escherichia coli (strain K12)) (UniProt P00811)
# Experiment: qHTS Inhibitors of AmpC Beta-Lactamase (assay with detergent); further: nearly all actives have a fitted effect of over 25% in size;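 on activity change, negative = inhibition: 0% = no-compound wells and -100% = no-enzyme wells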
# Conditions: AmpC hydrolysis of nitrocefin, absorbance 480 nm, 0.01% Triton; activity change, negative = inhibition: at 114 µM (top of the series)
# Procedure, shortened: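 AmpC (5.3 nM in the dispensed reagent) in 20 mM phosphate pH 7.0 with 0.01% (detergent screen) or 0.0001% Triton X-100 was preincubated with compounds for 15 min at room temperature. Nitrocefin was then added from an 800 uM solution, and hydrolysis was followed at 480 nm.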
# Potency means the concentration at half of the fitted maximal effect; tags describe the fitted curve by direction and shape.
# Chain of UniProt P00811 (P00811 whole entry, looked up): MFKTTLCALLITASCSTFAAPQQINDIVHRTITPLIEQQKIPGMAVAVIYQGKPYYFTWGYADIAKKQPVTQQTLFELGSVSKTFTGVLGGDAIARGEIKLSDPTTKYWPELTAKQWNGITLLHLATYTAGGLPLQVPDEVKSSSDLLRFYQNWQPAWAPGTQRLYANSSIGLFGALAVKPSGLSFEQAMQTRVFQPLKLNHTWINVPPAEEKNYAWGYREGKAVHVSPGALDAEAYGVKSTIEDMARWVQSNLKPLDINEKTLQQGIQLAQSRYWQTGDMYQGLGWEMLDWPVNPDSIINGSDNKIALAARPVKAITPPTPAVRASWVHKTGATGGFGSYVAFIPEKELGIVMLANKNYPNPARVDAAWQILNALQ
SMILES,"activity change, negative = inhibition",Potency
CSc1ccc(CNCC(O)c2ccccc2)cc1 (centres undefined),inactive: 3.01%,
Cc1cc(C(=O)COC(=O)c2n[nH]c3ccccc23)c(C)n1CC1CCCO1 (centres undefined),,"inconclusive [inhibitor, partial curve]"
Cc1cccc(OCc2n[nH]c(=S)o2)c1,,"inconclusive [inhibitor, full curve]"
O=C(CCn1nnc2ccccc21)N1CCN(c2ccccc2)CC1,,"inconclusive [inhibitor, full curve, poor fit]"
CC(=O)N1CCc2c(sc(NC(=O)CN3C(=O)CCC3=O)c2C(N)=O)C1,,"inconclusive [inhibitor, full curve, poor fit]"
CCC(CC)C(=O)NCCc1cc2c(OC)ccc(OC)c2[nH]c1=O,inactive: -1.42%,
O=C1OCCC1Sc1nc2ccccc2c(=O)n1Cc1ccc(F)cc1 (centres undefined),inactive: -10.5%,
Cc1cc(NC(=O)c2cc(-c3cccnc3)nc3c(C)c(C)ccc23)no1,inactive: 1.13%,
CCOC(=O)c1csc(NC(=O)CN2CCCCC2)n1,inactive: -9.69%,
Cc1onc(-c2ccccc2)c1C(=O)Nc1sc2c(c1C(N)=O)CCC2,inactive: 1.07%,
O=C(NCc1ccccn1)C1CCN(S(=O)(=O)N2CCCC2)CC1,,"inconclusive [inhibitor, single point]"
Cc1ccc(S(=O)(=O)N2CCN(C(=O)COC(=O)CCOc3ccccc3)CC2)c(C)c1,,"inconclusive [inhibitor, full curve, poor fit]"
O=c1[nH]c(SCc2n[nH]c(=S)n2-c2ccccc2)nc2ccccc12,,"inconclusive [inhibitor, full curve, poor fit]"
O=C(CCNC(=O)c1ccccc1Cl)NCCc1ccc(C(F)(F)F)cc1,,"inconclusive [inhibitor, full curve, poor fit]"
Clc1ccc(Nc2ncnc3c2nnn3Cc2ccccc2)cc1,,"inconclusive [inhibitor, full curve, poor fit]"
Fc1cccc(NC(=S)NCc2ccccn2)c1,,"inconclusive [inhibitor, full curve]"
N#Cc1c([N+](=O)[O-])cc([N+](=O)[O-])cc1S(=O)(=O)Cc1ccccc1,,"inconclusive [inhibitor, single point]"
Cc1occc1C(=O)N1CCN(S(=O)(=O)c2ccc(F)cc2)CC1,,"inconclusive [inhibitor, full curve, poor fit]"
CCCC(=O)NCCCc1nc2ccccc2n1C(C)C,,"inconclusive [inhibitor, full curve, poor fit]"
COc1cccc(C(=O)COC(=O)C2CC3CCCC(C2)C3=O)c1 (centres undefined),,"inconclusive [inhibitor, partial curve]"
O=C(O)c1cnn2c(C(F)(F)F)cc(-c3ccco3)nc12,,"inconclusive [inhibitor, full curve, poor fit]"
Cc1ccc(S(=O)(=O)NCC2CCC(C(=O)NCc3cccs3)CC2)cc1 (centres undefined),inactive: -5.89%,

SMILES,"activity change, negative = inhibition",Potency
Cc1c(C(=O)Nc2cc(S(=O)(=O)N3CCOCC3)ccc2N2CCOCC2)oc2ccccc12,,"inconclusive [inhibitor, single point]"
CN(C)S(=O)(=O)c1ccc(C(=O)NCc2ccccc2)cc1,,"inconclusive [inhibitor, full curve, poor fit]"
CCOc1cc(C#N)c(NC(=O)c2cccnc2Cl)cc1OCC,,"inconclusive [inhibitor, single point]"
CCn1c(SCC(=O)Nc2cccc(OC)c2)nc2c(c1=O)SCC2,,"inconclusive [inhibitor, full curve]"
COc1ccc(C(=O)Nc2cccc(C(C)=O)c2)cc1S(=O)(=O)N1CCOCC1,,"inconclusive [inhibitor, full curve, poor fit]"
O=C(COc1ccc(/C=N/NC(=O)c2ccc(O)cc2)cc1)Nc1ccc([N+](=O)[O-])cc1,,"inconclusive [inhibitor, partial curve, poor fit]"
Cc1csc(SCC(=O)N(C)C2CCS(=O)(=O)C2)n1 (centres undefined),,"inconclusive [inhibitor, full curve, poor fit]"
CCOC(=O)NC(=O)/C(N=Nc1cc(C)cc(C)c1)=C(\C)O,,"inconclusive [inhibitor, partial curve]"
Cc1cc(C)c(Cc2c(C)nc3c(C(=O)NCc4ccco4)cnn3c2C)c(C)c1,,"inconclusive [inhibitor, full curve, poor fit]"
CCN(CC(=O)NCc1cccs1)C(=O)/C=C/c1ccc(C)cc1,,"inconclusive [inhibitor, full curve, poor fit]"
Cc1ccc(OC(C)C(=O)Nc2ccc(C)c(S(=O)(=O)Nc3ccc(C)cc3C)c2)cc1 (centres undefined),,"inconclusive [inhibitor, full curve, poor fit]"
C1=C(c2c[nH]c3ccccc23)CCNC1,,"inconclusive [inhibitor, full curve, poor fit]"
O=S(=O)(c1ccc(Br)cc1)c1nc(-c2cccs2)oc1SCc1ccc(F)cc1,inactive: 11.4%,
Cc1ccc(-c2nc(CN(C)C)cc(CN(C)C)c2O)cc1,,"inconclusive [inhibitor, full curve, poor fit]"
CCOC(=O)C1CCN(c2ccc([N+](=O)[O-])c(C(C)=O)c2)CC1,,"inconclusive [inhibitor, full curve, poor fit]"
N#Cc1ccccc1Sc1ccccc1C(=O)OCC(N)=O,,"inconclusive [inhibitor, partial curve, poor fit]"
O=c1c([N+](=O)[O-])c(NCCN2CCCCCC2)c2ccccc2n1-c1ccccc1,,"inconclusive [inhibitor, partial curve]"
CCc1nnc(NC(=O)Nc2ccccc2OC)s1,,"inconclusive [inhibitor, full curve, poor fit]"
Cc1ccc(C(C)NC(=O)c2ccco2)cc1C (centres undefined),,"inconclusive [inhibitor, full curve]"
NC(=O)NC(Cc1ccccc1)C(=O)N1CCN(S(=O)(=O)c2ccc(Cl)cc2)CC1 (centres undefined),,"inconclusive [inhibitor, single point]"
COc1ccc(CNC(=O)c2nnn(-c3cccc(C(F)(F)F)c3)c2N)cc1,,"inconclusive [inhibitor, partial curve, poor fit]"
CCOC(=O)CSc1nnc(Cn2nnc(-c3ccccc3)n2)n1C,,"inconclusive [inhibitor, full curve]"

SMILES,"activity change, negative = inhibition",Potency
CCCN1Cc2cccc(C(=O)NCc3ccccc3OC)c2C1=O,,"inconclusive [inhibitor, full curve]"
Cc1cc(C)c2sc(N(CCCN(C)C)C(=O)CN3C(=O)c4ccccc4C3=O)nc2c1,,"inconclusive [inhibitor, full curve]"
COCCOC(=O)c1c(C)oc2ccc(OC(=O)c3cccs3)cc12,,"inconclusive [inhibitor, full curve, poor fit]"
COc1ccccc1CNC(=O)C1CSC2(C)CCC(=O)N12 (centres undefined),,"inconclusive [inhibitor, full curve, poor fit]"
CCOC(=O)N1CCC(NC(=O)c2cc(COc3ccccc3SC)on2)CC1,,"inconclusive [inhibitor, full curve]"
Cn1c(=O)[nH]c(=O)c2c1nc(NCCCn1ccnc1)n2CCOc1ccccc1,,"inconclusive [inhibitor, full curve, poor fit]"
Cc1ccc(CN2CCN(CCCc3ccccc3)CC2CCO)cc1 (centres undefined),inactive: -11.6%,
O=C(COc1ccc2ccc(=O)oc2c1)N1CC[C@@]2(O)CCCC[C@H]2C1,,"inconclusive [inhibitor, full curve, poor fit]"
Cc1ccc(-n2[nH]c(C)c(/C=N/Nc3ccc([N+](=O)[O-])cc3[N+](=O)[O-])c2=O)cc1C,,"inconclusive [inhibitor, single point]"
COc1ccc(-c2noc(CCC(=O)NCc3cccnc3)n2)cc1,,"inconclusive [inhibitor, full curve, poor fit]"
CN(N)C(=S)NCc1ccccc1,,"inconclusive [inhibitor, partial curve, poor fit]"
c1ccc(-c2noc(-c3cccnc3)n2)nc1,,"inconclusive [inhibitor, partial curve]"
Cc1ccc(N2CC(NC(=O)c3ccco3)CC2=O)cc1 (centres undefined),inactive: 0.87%,
COc1ccc(Cl)cc1N(C(=O)Nc1cccc(Cl)c1)C1=NCC(C)S1 (centres undefined),inactive: -11.8%,
COc1ccc(CNC(=O)CN(C)S(=O)(=O)c2ccc(Br)s2)cc1,,"inconclusive [inhibitor, partial curve, poor fit]"
CC(C)n1cnc2cc(NCc3ccccn3)ccc21,,"inconclusive [inhibitor, full curve, poor fit]"
Cc1ccc(C(=O)N2CCN(c3cccc(Cl)c3)CC2)cc1C,,"inconclusive [inhibitor, full curve, poor fit]"
COc1ccc(S(=O)(=O)NCC(c2ccc(C)cc2)N2CCN(C)CC2)cc1 (centres undefined),,"inconclusive [inhibitor, single point]"
Cc1cccc(NC(=O)C2CCCC2)c1,,"inconclusive [inhibitor, single point]"
N#Cc1ccc(C23CC4CC(CC(C4)C2)C3)[nH]c1=O,,"inconclusive [inhibitor, full curve, poor fit]"

# From PubChem BioAssay AID485294 (National Center for Advancing Translational Sciences (NCATS), 2010)
